The supplement of paper PMC4967469
Lines with a small IC50 respond at low doses; where the fit passes the top or lowest dose, that dose stands as a limit. For AUC the same curve is integrated over the 256-fold range of doses and scaled to a fraction: 1 means no effect, lower means more sensitive. For part of these data: An inferred top dose is not printed in the source and was worked back from the curve model.

Assays:
Assay in all cases: Viability of human cancer cell lines after 72 h of drug (GDSC screen)
[1] = compound: C=CC(=O)Nc1ccc(C(=O)c2sc(Nc3ccc(N4CCN(C)CC4)cc3OC)nc2N)cc1 [XMD15-27]; conditions: top dose 10.24 µM; top dose inferred
Protocol: (§1)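 Human cancer cell lines in 384-well plates, medium with 10% serum, drug for 72 h over a 256-fold dose range (nine 2-fold or five 4-fold steps up to the top dose). Adherent lines were fixed and stained with the nucleic acid dye Syto60, suspension lines read with resazurin; signal relative to control wells, capped at 0 and 100%. One two-parameter sigmoid per drug and line, fitted in a mixed model over all curves with the slope shared within a line.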

[2] = compound: CO[C@H]1C[C@@H]2CC[C@@H](C)[C@@](O)(O2)C(=O)C(=O)N2CCCC[C@H]2C(=O)O[C@H]([C@H](C)C[C@@H]2CC[C@@H](OC(=O)C(C)(CO)CO)[C@H](OC)C2)CC(=O)[C@H](C)/C=C(\C)[C@@H](O)[C@@H](OC)C(=O)[C@H](C)C[C@H](C)/C=C/C=C/C=C/1C [Temsirolimus]; conditions: top dose 0.2 µM
Protocol: as §1

[3] = compound: CC(=O)O[C@@H]1[C@@H](OC(C)=O)[C@@H](O)[C@H](Oc2c(-c3ccc(O)cc3)oc3cc(O)cc(O)c3c2=O)O[C@H]1C [SL 0101-1]; conditions: top dose 10 µM; top dose inferred
Protocol: as §1

Q: What does the source list for PA-TU-8988T (pancreas, adherent)?
A: AUC [1]: 0.987; IC50 [1]: > 10200 nM; AUC [2]: 0.893; IC50 [2]: > 200 nM

Q: How did the AUC [1] turn out when RCC-ER (kidney, adherent) was run?
A: The AUC was 0.981.

Q: And the IC50 [1]?
A: The IC50 was > 10200 nM.

Q: And the AUC [2]?
A: The AUC was 0.797.

Q: And the IC50 [2]?
A: Its IC50 is 108 nM.

Q: For ACHN (kidney, adherent), which AUC [1] is on record?
A: The AUC was 0.97.

Q: What about the IC50 [1] of the same cell line?
A: Its IC50 is > 10200 nM.

Q: And the AUC [2]?
A: The AUC was 0.866.

Q: What about the IC50 [2] of the same cell line?
A: The IC50 was > 200 nM.

Q: Which results are given for SNU-423 (liver, adherent)?
A: AUC [1]: 0.95; IC50 [1]: > 10200 nM; AUC [2]: 0.729; IC50 [2]: 63.3 nM

Q: With WM278 (melanoma, adherent) as the cell line, how does the AUC [1] read?
A: The AUC was 0.973.

Q: And the IC50 [1]?
A: The IC50 was > 10200 nM.

Q: What about the AUC [2] of the same cell line?
A: Its AUC is 0.803.

Q: And the IC50 [2]?
A: Its IC50 is 115 nM.

Q: With VMRC-MELG (melanoma, adherent) as the cell line, how does the AUC [1] read?
A: The AUC was 0.989.

Q: What about the IC50 [1] of the same cell line?
A: Its IC50 is > 10200 nM.

Q: What about the AUC [2] of the same cell line?
A: Its AUC is 0.95.

Q: And the IC50 [2]?
A: Its IC50 is > 200 nM.

Q: How did the AUC [1] turn out when MKN45 (stomach, adherent) was run?
A: Its AUC is 0.981.

Q: What about the IC50 [1] of the same cell line?
A: The IC50 was > 10200 nM.

Q: And the AUC [2]?
A: Its AUC is 0.891.

Q: What about the IC50 [2] of the same cell line?
A: The IC50 was > 200 nM.

Q: For SCC-4 (head and neck, adherent), which AUC [1] is on record?
A: Its AUC is 0.984.

Q: What about the IC50 [1] of the same cell line?
A: The IC50 was > 10200 nM.

Q: What about the AUC [2] of the same cell line?
A: Its AUC is 0.835.

Q: What about the IC50 [2] of the same cell line?
A: The IC50 was 168 nM.

Q: Which results are given for SK-N-DZ (neuroblastoma, adherent)?
A: AUC [1]: 0.988; IC50 [1]: > 10200 nM; AUC [2]: 0.925; IC50 [2]: > 200 nM

Q: For “HOP-92 (large cell lung carcinoma, adherent)”, which AUC [1] is on record?
A: The AUC was 0.985.

Q: And the IC50 [1]?
A: The IC50 was > 10200 nM.

Q: What about the AUC [2] of the same cell line?
A: The AUC was 0.824.

Q: And the IC50 [2]?
A: The IC50 was 144 nM.

Q: What does the source list for HMV-II (melanoma, adherent)?
A: AUC [1]: 0.971; IC50 [1]: > 10200 nM; AUC [2]: 0.85; IC50 [2]: > 200 nM

Q: “DMS-53 (small cell lung carcinoma, adherent)” was tested. Which AUC [1] did it give?
A: Its AUC is 0.988.

Q: What about the IC50 [1] of the same cell line?
A: Its IC50 is > 10200 nM.

Q: And the AUC [2]?
A: The AUC was 0.986.

Q: What about the IC50 [2] of the same cell line?
A: Its IC50 is > 200 nM.

Q: How did the AUC [1] turn out when ABC-1 (lung adenocarcinoma, adherent) was run?
A: The AUC was 0.98.

Q: What about the IC50 [1] of the same cell line?
A: The IC50 was > 10200 nM.

Q: What about the AUC [2] of the same cell line?
A: Its AUC is 0.785.

Q: What about the IC50 [2] of the same cell line?
A: Its IC50 is 105 nM.

Q: Which AUC [1] does the source give for KYSE-70 (oesophagus, adherent) here?
A: The AUC was 0.986.

Q: And the IC50 [1]?
A: Its IC50 is > 10200 nM.

Q: And the AUC [2]?
A: Its AUC is 0.905.

Q: What about the IC50 [2] of the same cell line?
A: Its IC50 is > 200 nM.

Q: U-2-OS (osteosarcoma, adherent) was tested. Which AUC [1] did it give?
A: The AUC was 0.973.

Q: What about the IC50 [1] of the same cell line?
A: Its IC50 is > 10200 nM.

Q: And the AUC [2]?
A: Its AUC is 0.721.

Q: What about the IC50 [2] of the same cell line?
A: The IC50 was 56.5 nM.

Q: Which results are given for 786-0 (kidney, adherent)?
A: AUC [1]: 0.971; IC50 [1]: > 10200 nM; AUC [3]: 0.976; IC50 [3]: > 10000 nM

Q: Which AUC [1] does the source give for LB2241-RCC (kidney, adherent) here?
A: Its AUC is 0.984.

Q: And the IC50 [1]?
A: Its IC50 is > 10200 nM.

Q: What about the AUC [2] of the same cell line?
A: Its AUC is 0.64.

Q: What about the IC50 [2] of the same cell line?
A: The IC50 was 31.9 nM.

Q: What does the source list for LNCaP-Clone-FGC (prostate, adherent)?
A: AUC [1]: 0.951; IC50 [1]: > 10200 nM; AUC [3]: 0.984; IC50 [3]: > 10000 nM
